Assay results published in PubChem BioAssay AID1645887 (National Center for Advancing Translational Sciences (NCATS), 2021).
Where “and” joins values, the source holds several entries; their conditions need not be identical. Equal entries are not always repeated. The whole screen tested about 16,000 compounds, of which about 40 (0.2%) were called active. About 1% were inconclusive and are not listed. Calls follow the shape of the dose curve; as a rule, active = well fitted activation curve with a large enough effect; inconclusive = small, poorly fitted or top-dose-only effect, or another doubt; inactive = no such curve, though single readings can be large or run the other way. The list shows a part of the results.

target: Rap guanine nucleotide exchange factor 4 (Homo sapiens) (UniProt Q8WZA2); assay: Validation qHTS for agonist of cAMP-regulated guanine nucleotide exchange factor 4 (EPAC2); settings: EPAC2 Rap1B BODIPY-GDP exchange, fluorescence; activation: hits give high values;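 also: exchange makes BODIPY-GDP fluorescence drop when released from Rap1B; series mostly up to about 150 µM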
How it was run: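 Signal normalized against 6.5 mM cAMP as agonist control. Mix of EPAC2 (100 nM), RAP1B-BODIPY-GDP (250 nM) and GDP (50 uM) was read kinetically at 480/540 nm, every 5 min over 30 min, after 5 min room-temperature incubation with compound.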
% is scaled to controls: 0 for no effect and ±100 for the full control effect.

Chain of UniProt Q8WZA2 (Q8WZA2 whole entry, looked up): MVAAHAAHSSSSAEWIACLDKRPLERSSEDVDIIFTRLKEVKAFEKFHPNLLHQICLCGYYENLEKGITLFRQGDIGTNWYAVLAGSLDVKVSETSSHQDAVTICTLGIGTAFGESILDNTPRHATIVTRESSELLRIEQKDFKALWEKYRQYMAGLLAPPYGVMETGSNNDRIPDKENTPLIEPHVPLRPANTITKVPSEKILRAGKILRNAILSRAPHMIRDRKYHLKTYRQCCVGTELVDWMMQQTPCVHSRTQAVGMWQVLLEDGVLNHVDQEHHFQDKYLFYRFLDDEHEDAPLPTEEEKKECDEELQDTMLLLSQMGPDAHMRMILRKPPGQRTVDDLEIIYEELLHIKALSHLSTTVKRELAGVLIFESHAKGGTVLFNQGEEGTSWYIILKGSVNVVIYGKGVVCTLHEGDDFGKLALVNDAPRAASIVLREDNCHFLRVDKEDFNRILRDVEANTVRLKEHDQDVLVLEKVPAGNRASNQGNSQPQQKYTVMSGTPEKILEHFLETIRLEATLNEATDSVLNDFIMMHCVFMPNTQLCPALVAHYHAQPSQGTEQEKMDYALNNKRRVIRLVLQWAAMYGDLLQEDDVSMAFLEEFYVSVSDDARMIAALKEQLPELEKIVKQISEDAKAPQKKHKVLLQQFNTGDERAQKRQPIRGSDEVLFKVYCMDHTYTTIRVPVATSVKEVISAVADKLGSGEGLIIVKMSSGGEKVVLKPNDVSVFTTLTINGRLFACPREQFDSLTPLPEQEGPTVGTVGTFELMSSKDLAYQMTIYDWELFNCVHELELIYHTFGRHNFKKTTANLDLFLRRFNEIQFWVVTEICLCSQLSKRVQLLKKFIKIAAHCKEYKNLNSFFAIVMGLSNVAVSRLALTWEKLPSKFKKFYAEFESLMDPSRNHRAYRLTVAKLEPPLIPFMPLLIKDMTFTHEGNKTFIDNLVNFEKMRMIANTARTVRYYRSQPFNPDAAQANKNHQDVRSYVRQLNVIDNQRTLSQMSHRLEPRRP

activation, inactive:
CN(C)CCCOc1nn(Cc2ccccc2)c2ccccc12 -10.4%
CCCN1CCC(=O)N(CCC#N)CC1 -16.2%
O=C1c2c(O)cc(O)cc2OC(c2ccc(O)c(O)c2)C1O (stereo not given) -3.13% and -55.1%
CCc1ccc2c(c1)N(CC(C)CN(C)C)c1ccccc1S2 (stereo not given) -8.78%
CC1CN(CCC(=O)NCc2ccc3ncccc3c2)Cc2cc(Cl)ccc2O1 (stereo not given) 2.44%
CC(C)NC[C@@H](O)COc1cccc2[nH]ccc12 0.895%
CCN1\C(=C/C=C/C=C/c2sc3ccccc3[n+]2CC)Sc2ccccc21 -24.7% and -11%
CNc1ccnc(-c2ccccc2CN(C)C)n1 4.85%
O=C(O)COc1cccc(-c2ocnc2-c2nc(-c3ccccc3)c(-c3ccccc3)o2)c1 -11.2%
[O]=[Bi][O][Bi]=[O] -2.73%
S=C=Nc1ccc(N=C=S)cc1 -21.6%
Cc1cnc(-n2ncc(C(=O)NCC(C)(C)N3CCOCC3)c2C)nc1-c1cccs1 -8.75%
O=C(O)COc1nn(Cc2ccccc2)c2ccccc12 -18.1%
CO[C@]12CC(COC(=O)c3cncc(Br)c3)CN(C)[C@@H]1Cc1cn(C)c3cccc2c13 (stereo not given in full) -9.16%
COc1cccc(Nc2ncc3nc(-c4ccc(Cl)cc4)c(=O)n(C4CC4)c3n2)c1 -3.95%
CN1CCC2(CCN3CCc4c(oc5ccccc45)C3C2)N(C)C1=O (stereo not given) -29.9%
O=c1cc(-c2ccccc2O)oc2cc(O)cc(O)c12 0.492%
Cc1noc(C)c1-c1nc(NCCN2CCOCC2)c2ccccc2n1 -7.77%
CCCCCCCCCCCCCc1ccco1 -15.9%
Cc1cnc(-n2ncc(C(=O)N[C@H]3CCCCNC3=O)c2C2CC2)nc1-c1cccs1 -5.07%
COc1ccc(OC)c(CN2CCOc3ccc(CN4CCC(O)(c5cccnc5)CC4)cc3C2)c1 -22.1%
Cn1cc(C(=O)OCC2CCN(CCNS(C)(=O)=O)CC2)c2ccccc21 -26.7% and -1.5%
CNc1cc(-c2ccccc2C)ncn1 -2.51%
COCCn1c(=O)c(CCc2ccccc2)nc2cnc(Oc3cccc(Cl)c3)nc21 -12.4%
COc1cc(C(=O)N2CCOCC2)cc(OC)c1OC 1.55% and 3.93%
C=C1C(=O)O[C@H]2[C@H]1CC/C(C)=C\CC[C@@]1(C)O[C@@H]21 -12.2%
COc1ncc2nc(-c3ccc(F)cc3)c(=O)n(-c3ccccc3)c2n1 1.33%
CC(=O)OCC(=O)[C@@]1(O)CC[C@H]2[C@@H]3CCC4=CC(=O)CC[C@]4(C)[C@H]3C(=O)C[C@@]21C 10.9% and -8.76%
CC(C)(C)[C@H]1CCC(=O)N(CCSc2ccc(Br)cc2)CC1 -6.38%
CC(=O)OCC(=O)[C@@]1(O)CC[C@H]2[C@@H]3CCC4=CC(=O)C=C[C@]4(C)[C@@]3(F)[C@@H](O)C[C@@]21C -10.3%
CO[C@]12C[C@@H](COC(=O)c3cncc(Br)c3)CN(C)[C@@H]1Cc1cn(C)c3cccc2c13 -1.59% and -20.2%
Cc1oc(-c2cccc(NC(=O)c3ccccn3)c2)nc1CNC(=O)C#Cc1ccccc1 8.73%
O=C(NCC1CCC2(CCN(Cc3cc4ccccc4o3)CC2)O1)c1ccccc1 (stereo not given) -14.7%
COc1cccc(Nc2ncc3nc(C)c(=O)n(C[C@H]4CCCO4)c3n2)c1 -13.4%
COCC1CCCN(Cc2ccc3c(c2)CN(C(=O)c2ccc(-n4cccn4)cc2)CCO3)C1 (stereo not given) -6.56%
Cc1ncc(C[n+]2csc(CCOP(=O)(O)O)c2C)c(N)n1 -14.4%
CNCC[C@H](Oc1ccc(C(F)(F)F)cc1)c1ccccc1 -44.1% and -51.2%
N#CCCn1c(=O)c(-c2cc(F)cc(F)c2)nc2cnc(Oc3cccc(Cl)c3)nc21 11.4%
CC(=O)c1ccc(F)c(-c2cc(C)cc3c2OC(CNC(=O)C(C)n2nc(C)cc2C)C3)c1 (stereo not given) -21.2%
Oc1ccc(O)cc1 12.3% and -2.34% and -7.54%
CCNc1ncc2nc(CCc3ccccc3)c(=O)n(Cc3cccc(OC)c3)c2n1 -0.96%
COc1cc(C)c(CN2C[C@H](Sc3nc4ccccc4[nH]3)C[C@H]2C(=O)N(C)C)cc1C -25%
COCC(=O)N1CCC2(CC1)CN(Cc1cc(C(F)(F)F)cc(C(F)(F)F)c1)C2 -8.19%
O=C1CCN(Cc2ccccc2)CCN1CCSc1ccccc1 -15%
CCC1COCCS(=O)(=O)N1Cc1ccc(Cl)cc1 (stereo not given) -27.3%
COc1cc2nc(N3CCN(C(=O)C4CCCO4)CC3)nc(N)c2cc1OC (stereo not given) -11.7% and -31.1%
COc1cccc(-c2ccc3ncnc(Nc4ccccc4)c3c2)c1 -7.85%
OC[C@@H]1O[C@@H](n2cnc3c(NC4CCCC4)ncnc32)[C@H](O)[C@H]1O 2.34%
COc1ccc(SC[C@H](C)CN2CC[C@H](C)CCC2=O)cc1 -21.2%
C[C@H]1C[C@H]2[C@@H]3CCC4=CC(=O)C=C[C@]4(C)[C@@]3(Cl)[C@@H](O)C[C@]2(C)[C@@]1(O)C(=O)CO 21.5%
CCCCCC(N)=O 5.33%
CCCCCCCCN1[C@@H](CC(=O)O)c2cc(F)ccc2S1(=O)=O -2.18%
CN1CCC(CN2c3ccccc3Sc3ccccc32)C1 (stereo not given) -8.26%
Clc1ccccc1-c1cncnc1NCCN1CCOCC1 -1.3%
O=C(/C=C\c1ccc(O)c(O)c1)O[C@@H](Cc1ccc(O)c(O)c1)C(=O)O 0.738%
